Results on 24 molecules are retold here after paper PMC4336329 (PLoS ONE, 2015).

The whole screen tested about 310,000 compounds, of which about 2,200 (0.71%) showed an effect of 50% or more. The effect is printed as a negative number. The list shows a part of the results.

The target of this experiment is human ether-à-go-go-related gene (hERG) potassium channel (human, UniProt Q12809). As to the kind of experiment: primary screen, population patch clamp on CHO cells stably expressing hERG.
Chain of human ether-à-go-go-related gene (hERG) potassium channel (Q12809 whole entry, looked up): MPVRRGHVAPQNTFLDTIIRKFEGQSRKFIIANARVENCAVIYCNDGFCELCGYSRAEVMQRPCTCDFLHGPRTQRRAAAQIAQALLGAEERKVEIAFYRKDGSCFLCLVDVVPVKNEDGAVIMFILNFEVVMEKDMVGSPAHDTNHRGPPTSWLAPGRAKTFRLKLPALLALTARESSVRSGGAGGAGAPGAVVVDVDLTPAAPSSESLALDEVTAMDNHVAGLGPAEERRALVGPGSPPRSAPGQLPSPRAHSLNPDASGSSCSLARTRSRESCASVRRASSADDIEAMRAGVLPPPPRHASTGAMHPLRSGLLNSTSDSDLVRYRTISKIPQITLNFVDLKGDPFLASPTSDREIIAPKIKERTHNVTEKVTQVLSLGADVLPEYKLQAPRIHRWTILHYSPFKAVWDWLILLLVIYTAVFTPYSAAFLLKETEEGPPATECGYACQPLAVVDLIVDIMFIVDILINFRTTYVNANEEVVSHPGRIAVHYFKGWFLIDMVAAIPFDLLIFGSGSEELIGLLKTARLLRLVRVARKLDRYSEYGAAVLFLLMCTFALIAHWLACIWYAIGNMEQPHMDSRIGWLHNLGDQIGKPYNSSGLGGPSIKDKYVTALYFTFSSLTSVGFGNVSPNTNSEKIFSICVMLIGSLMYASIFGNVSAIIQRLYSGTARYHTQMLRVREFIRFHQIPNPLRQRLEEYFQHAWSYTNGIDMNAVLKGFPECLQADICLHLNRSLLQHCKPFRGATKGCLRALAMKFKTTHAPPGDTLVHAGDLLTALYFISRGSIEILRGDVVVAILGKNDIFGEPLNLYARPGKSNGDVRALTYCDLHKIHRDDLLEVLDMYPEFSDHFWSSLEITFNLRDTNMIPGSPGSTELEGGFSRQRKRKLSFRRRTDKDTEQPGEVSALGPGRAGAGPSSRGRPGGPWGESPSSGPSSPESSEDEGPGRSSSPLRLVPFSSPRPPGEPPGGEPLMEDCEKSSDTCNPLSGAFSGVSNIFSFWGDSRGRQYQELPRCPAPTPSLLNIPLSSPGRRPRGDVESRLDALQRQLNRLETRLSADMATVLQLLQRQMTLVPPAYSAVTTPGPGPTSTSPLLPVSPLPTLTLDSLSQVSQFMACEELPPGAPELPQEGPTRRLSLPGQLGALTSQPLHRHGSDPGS
Turning to `C=CCn1c(=O)c2ccccc2n2c(SCc3nc(N)nc(Nc4ccccc4C)n3)nnc12`, the “hERG current change (%, negative = inhibition) at 1uM” value was found to be 3.47%.

With `Cc1c(O)cccc1C(=O)N[C@@H](CSc1ccccc1)[C@H](O)CN1C[C@H]2CCCC[C@H]2C[C@H]1C(=O)NC(C)(C)C`, the “hERG current change (%, negative = inhibition) at 1uM” value is 8.45%.

With `Cc1cc(C)n2nc(S(=O)(=O)NC3CCCCC3)nc2n1`, the “hERG current change (%, negative = inhibition) at 1uM” value came out at 9.08%.

As for `CCCCN(C)S(=O)(=O)c1ccc(C(=O)N(CCN(C)C)c2nc3ccc(C)cc3s2)cc1.Cl`, the “hERG current change (%, negative = inhibition) at 1uM” value came out at 2.16%.

Turning to `OCCNCCO`, the “hERG current change (%, negative = inhibition) at 1uM” value stood at 3.96%.

Take `CN(C)C=O.Cc1ccc(-c2cc(-c3n[nH]c(=S)o3)c3ccccc3n2)cc1`: the “hERG current change (%, negative = inhibition) at 1uM” value is 14.9%.

Consider `O=C(CSc1ccccc1F)NCC1(N2CCCCC2)CCCCC1`, for which the “hERG current change (%, negative = inhibition) at 1uM” value is given as 5.47%.

As to `Cc1ccc(C(=O)Oc2cccc(NC(=O)c3cccs3)c2)cc1S(=O)(=O)N1CCOCC1`, the “hERG current change (%, negative = inhibition) at 1uM” value is recorded as -0.011%.

Regarding `CNC(=O)CSc1nc2cc(S(=O)(=O)Nc3ccccc3OC)ccc2o1`, the “hERG current change (%, negative = inhibition) at 1uM” value is reported as 9.52%.

For `C=C1C(O)(c2ccccc2)C2CC[N+]1(C)CC2.[Cl-]` (stereo not drawn), the “hERG current change (%, negative = inhibition) at 1uM” value was 12.1%.

As for `COc1ccc(-c2nnc(SCC(=O)NCc3cccs3)n2CC(C)C)cc1`, the “hERG current change (%, negative = inhibition) at 1uM” value is recorded as 2.93%.

As for `CCN(CC)CC1C(=O)N(c2ccc(OC)cc2)C1c1ccccc1` (stereo not drawn), the “hERG current change (%, negative = inhibition) at 1uM” value is reported as 7.47%.

On to `Cc1ccc(C2N(c3ccccn3)C(=O)C3CCCN32)o1` (stereo not drawn), for which the “hERG current change (%, negative = inhibition) at 1uM” value is listed as 8.76%.

`CCc1nnc(SCC(=O)NC2CCCC2)nc1CC`: the “hERG current change (%, negative = inhibition) at 1uM” value was -0.987%.

With `O=C(CSc1nnc(-c2ccncc2)n1C1CCCCC1)Nc1cccc(O)c1`, the “hERG current change (%, negative = inhibition) at 1uM” value came out at 15.4%.

Consider `CCn1c(SCc2ccccc2)nc2c(c1=O)SCC2`, for which the “hERG current change (%, negative = inhibition) at 1uM” value worked out at 2.26%.

As for `O=C(C1CCN(C2CCN(Cc3cccc4c3OCO4)CC2)CC1)N1CCOCC1`, the “hERG current change (%, negative = inhibition) at 1uM” value was 7.4%.

With `COc1cc(CNC(=O)CCC(=O)N2C[C@H]3C[C@H](C2)c2cccc(=O)n2C3)cc(OC)c1OC`, the “hERG current change (%, negative = inhibition) at 1uM” value turned out to be 8.04%.

For `COc1ccccc1-n1c(/C=C/c2ccccn2)nc2ccccc2c1=O`, the “hERG current change (%, negative = inhibition) at 1uM” value came to 6.81%.

Consider `C=CCn1c(NCc2cc(Cl)ccc2O)nc2ccccc21`, for which the “hERG current change (%, negative = inhibition) at 1uM” value came out at 15.3%.

Regarding `CCC(=O)NC(Nc1cccc(C)n1)(C(F)(F)F)C(F)(F)F`, the “hERG current change (%, negative = inhibition) at 1uM” value was 13.3%.

For the molecule `CCOc1ccc(NC(=O)Nc2ccc(NC(C)=O)cc2)cc1`, the “hERG current change (%, negative = inhibition) at 1uM” value was determined as 16.5%.

Turning to `COc1cccc(/C=N\Nc2nncc(-c3ccccc3)n2)c1`, the “hERG current change (%, negative = inhibition) at 1uM” value amounted to 9.9%.

Regarding `CCC(=NCC1CCCO1)c1c(O)n(-c2ccccc2C)c(=O)[nH]c1=O` (stereo not drawn), the “hERG current change (%, negative = inhibition) at 1uM” value came out at 19.4%.
